Measured values taken from PMC4168999.
Results are given in words; binding and its absence hold for the method and conditions named. In cells and extracts the contact can be indirect. Some binding calls cover weakened binding; strength is not graded here.

Chains of the proteins cited; added tags and fusions are not shown.
UniProt Q8TE73: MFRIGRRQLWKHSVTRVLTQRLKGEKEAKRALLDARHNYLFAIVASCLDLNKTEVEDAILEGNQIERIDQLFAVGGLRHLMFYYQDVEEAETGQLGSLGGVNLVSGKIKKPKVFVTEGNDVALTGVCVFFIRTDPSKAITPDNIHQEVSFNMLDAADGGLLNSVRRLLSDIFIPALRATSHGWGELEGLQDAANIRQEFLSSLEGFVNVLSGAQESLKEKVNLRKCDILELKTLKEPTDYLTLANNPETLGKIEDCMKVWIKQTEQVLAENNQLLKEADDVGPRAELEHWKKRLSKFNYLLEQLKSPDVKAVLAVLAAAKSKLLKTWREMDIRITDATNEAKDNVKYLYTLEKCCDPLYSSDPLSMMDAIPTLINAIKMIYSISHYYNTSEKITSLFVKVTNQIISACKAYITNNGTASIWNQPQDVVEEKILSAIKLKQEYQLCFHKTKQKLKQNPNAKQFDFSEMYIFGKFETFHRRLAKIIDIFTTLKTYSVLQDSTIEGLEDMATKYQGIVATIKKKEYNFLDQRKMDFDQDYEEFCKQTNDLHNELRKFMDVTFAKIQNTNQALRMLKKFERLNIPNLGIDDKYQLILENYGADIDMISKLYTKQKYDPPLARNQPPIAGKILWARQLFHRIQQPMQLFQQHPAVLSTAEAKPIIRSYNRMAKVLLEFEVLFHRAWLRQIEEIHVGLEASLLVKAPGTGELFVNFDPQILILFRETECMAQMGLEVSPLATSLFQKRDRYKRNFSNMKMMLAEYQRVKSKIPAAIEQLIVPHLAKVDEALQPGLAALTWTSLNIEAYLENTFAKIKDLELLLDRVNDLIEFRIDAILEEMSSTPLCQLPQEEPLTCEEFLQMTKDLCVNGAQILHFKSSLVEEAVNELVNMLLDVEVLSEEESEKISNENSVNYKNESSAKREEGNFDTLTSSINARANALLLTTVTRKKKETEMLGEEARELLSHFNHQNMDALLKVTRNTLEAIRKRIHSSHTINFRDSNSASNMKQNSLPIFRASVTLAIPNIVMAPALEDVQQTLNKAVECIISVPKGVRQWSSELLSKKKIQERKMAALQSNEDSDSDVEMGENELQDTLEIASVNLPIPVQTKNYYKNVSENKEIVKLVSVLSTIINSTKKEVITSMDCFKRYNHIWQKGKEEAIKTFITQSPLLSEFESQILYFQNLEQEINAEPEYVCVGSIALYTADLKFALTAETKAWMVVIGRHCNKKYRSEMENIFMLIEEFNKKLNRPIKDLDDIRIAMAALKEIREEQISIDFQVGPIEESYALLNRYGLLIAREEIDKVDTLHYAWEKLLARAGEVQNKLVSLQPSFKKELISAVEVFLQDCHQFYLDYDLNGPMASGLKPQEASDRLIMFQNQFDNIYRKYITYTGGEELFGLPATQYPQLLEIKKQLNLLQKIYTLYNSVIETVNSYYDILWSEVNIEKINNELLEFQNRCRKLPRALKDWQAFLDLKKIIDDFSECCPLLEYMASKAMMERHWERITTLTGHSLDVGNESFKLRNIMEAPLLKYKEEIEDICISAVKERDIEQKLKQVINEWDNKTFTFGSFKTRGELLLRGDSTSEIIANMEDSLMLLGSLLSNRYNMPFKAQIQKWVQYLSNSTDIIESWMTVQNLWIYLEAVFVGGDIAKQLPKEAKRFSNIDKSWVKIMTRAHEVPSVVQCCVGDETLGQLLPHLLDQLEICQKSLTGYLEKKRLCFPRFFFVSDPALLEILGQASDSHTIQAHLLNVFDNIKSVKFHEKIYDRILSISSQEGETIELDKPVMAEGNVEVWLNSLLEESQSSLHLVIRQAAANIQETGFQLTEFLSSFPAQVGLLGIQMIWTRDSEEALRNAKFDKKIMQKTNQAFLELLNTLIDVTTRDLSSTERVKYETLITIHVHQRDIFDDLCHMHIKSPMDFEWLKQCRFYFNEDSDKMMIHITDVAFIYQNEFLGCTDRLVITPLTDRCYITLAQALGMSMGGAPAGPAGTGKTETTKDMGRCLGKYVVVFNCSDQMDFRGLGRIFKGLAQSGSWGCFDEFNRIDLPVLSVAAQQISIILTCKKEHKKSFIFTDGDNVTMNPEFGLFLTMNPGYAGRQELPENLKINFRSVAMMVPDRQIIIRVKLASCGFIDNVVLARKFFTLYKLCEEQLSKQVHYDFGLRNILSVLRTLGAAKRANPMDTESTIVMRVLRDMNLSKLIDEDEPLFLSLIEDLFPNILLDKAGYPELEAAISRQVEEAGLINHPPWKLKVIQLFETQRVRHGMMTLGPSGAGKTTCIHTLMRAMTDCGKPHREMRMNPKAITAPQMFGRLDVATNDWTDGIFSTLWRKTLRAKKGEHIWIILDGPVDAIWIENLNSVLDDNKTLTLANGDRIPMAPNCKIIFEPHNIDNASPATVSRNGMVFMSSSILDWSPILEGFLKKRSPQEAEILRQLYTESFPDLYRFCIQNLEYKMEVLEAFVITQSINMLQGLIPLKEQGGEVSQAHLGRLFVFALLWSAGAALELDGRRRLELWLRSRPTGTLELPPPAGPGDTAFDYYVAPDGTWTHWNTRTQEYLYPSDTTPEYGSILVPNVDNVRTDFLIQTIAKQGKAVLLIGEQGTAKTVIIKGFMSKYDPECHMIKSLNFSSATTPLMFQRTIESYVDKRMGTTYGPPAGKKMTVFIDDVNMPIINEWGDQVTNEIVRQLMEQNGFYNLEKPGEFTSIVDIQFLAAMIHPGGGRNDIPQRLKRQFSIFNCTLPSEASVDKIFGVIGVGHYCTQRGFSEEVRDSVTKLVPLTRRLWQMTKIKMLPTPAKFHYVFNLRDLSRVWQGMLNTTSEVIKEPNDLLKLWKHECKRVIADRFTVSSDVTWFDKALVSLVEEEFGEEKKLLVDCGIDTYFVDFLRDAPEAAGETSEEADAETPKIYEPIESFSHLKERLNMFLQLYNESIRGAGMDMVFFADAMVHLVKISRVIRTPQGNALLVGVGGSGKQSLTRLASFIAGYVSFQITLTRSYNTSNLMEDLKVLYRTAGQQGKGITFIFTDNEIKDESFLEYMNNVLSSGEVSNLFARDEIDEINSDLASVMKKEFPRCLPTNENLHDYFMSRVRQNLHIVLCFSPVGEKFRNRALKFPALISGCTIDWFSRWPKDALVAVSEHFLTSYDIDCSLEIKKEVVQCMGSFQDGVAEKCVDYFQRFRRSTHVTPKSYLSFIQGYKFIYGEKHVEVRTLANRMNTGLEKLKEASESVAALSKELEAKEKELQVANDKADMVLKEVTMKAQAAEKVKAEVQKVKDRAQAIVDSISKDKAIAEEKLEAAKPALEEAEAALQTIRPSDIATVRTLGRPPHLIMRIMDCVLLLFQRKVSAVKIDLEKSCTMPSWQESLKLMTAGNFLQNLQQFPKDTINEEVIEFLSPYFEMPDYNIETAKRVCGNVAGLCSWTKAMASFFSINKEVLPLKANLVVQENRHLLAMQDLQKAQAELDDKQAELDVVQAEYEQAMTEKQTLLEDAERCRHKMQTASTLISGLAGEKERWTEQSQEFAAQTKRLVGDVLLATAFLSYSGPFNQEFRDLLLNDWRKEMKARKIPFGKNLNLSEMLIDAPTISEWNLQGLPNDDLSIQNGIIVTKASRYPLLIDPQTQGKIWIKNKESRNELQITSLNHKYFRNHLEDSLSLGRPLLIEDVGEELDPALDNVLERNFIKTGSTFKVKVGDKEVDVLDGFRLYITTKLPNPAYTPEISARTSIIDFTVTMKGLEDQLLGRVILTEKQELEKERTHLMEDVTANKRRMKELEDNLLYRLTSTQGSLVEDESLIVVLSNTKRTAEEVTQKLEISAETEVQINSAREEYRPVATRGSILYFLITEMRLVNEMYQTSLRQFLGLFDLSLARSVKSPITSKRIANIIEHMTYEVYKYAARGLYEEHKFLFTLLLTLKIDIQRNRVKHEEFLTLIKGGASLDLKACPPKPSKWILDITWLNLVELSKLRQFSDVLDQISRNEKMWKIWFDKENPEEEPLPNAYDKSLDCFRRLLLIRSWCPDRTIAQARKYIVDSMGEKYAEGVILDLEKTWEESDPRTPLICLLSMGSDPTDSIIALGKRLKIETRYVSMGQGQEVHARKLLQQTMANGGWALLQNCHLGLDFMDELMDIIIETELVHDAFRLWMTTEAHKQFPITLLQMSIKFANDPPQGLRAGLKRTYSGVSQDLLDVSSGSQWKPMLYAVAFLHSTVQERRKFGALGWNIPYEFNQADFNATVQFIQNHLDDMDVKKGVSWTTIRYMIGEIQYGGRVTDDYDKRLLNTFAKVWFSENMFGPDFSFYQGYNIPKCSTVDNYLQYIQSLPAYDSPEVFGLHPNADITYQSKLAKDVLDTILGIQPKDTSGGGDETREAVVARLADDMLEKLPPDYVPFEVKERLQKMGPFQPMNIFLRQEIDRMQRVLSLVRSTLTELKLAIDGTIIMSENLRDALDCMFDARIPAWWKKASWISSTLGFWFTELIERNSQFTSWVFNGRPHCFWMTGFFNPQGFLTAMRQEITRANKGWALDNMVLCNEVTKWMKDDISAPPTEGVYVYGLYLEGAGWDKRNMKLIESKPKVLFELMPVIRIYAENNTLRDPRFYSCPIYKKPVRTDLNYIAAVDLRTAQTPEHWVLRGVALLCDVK
UniProt O75800: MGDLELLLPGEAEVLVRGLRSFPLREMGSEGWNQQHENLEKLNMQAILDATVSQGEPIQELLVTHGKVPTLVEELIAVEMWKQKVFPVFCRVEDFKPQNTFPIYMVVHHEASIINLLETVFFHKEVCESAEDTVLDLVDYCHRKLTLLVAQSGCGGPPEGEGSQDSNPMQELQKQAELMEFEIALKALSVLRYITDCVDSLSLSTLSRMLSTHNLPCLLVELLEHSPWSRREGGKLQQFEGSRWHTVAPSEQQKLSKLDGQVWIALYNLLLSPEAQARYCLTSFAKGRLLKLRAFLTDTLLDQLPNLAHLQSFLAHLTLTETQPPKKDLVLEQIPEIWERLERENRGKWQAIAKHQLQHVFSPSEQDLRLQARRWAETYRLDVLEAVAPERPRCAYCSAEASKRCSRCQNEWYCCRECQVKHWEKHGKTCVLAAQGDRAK

B1: DNAI2 (protein, UniProt Q9GZS0 1-605)
chain: MEIVYVYVKKRSEFGKQCNFSDRQAELNIDIMPNPELAEQFVERNPVDTGIQCSISMSEHEANSERFEMETRGVNHVEGGWPKDVNPLELEQTIRFRKKVEKDENYVNAIMQLGSIMEHCIKQNNAIDIYEEYFNDEEAMEVMEEDPSAKTINVFRDPQEIKRAATHLSWHPDGNRKLAVAYSCLDFQRAPVGMSSDSYIWDLENPNKPELALKPSSPLVTLEFNPKDSHVLLGGCYNGQIACWDTRKGSLVAELSTIESSHRDPVYGTIWLQSKTGTECFSASTDGQVMWWDIRKMSEPTEVVILDITKKEQLENALGAISLEFESTLPTKFMVGTEQGIVISCNRKAKTSAEKIVCTFPGHHGPIYALQRNPFYPKNFLTVGDWTARIWSEDSRESSIMWTKYHMAYLTDAAWSPVRPTVFFTTRMDGTLDIWDFMFEQCDPTLSLKVCDEALFCLRVQDNGCLIACGSQLGTTTLLEVSPGLSTLQRNEKNVASSMFERETRREKILEARHREMRLKEKGKAEGRDEEQTDEELAVDLEALVSKAEEEFFDIIFAELKKKEADAIKLTPVPQQPSPEEDQVVEEGEEAAGEEGDEEVEEDLA
B2: DNALI1 (protein, UniProt O14645 1-258)
chain: MIPPADSLLKYDTPVLVSRNTEKRSPKARLLKVSPQQPGPSGSAPQPPKTKLPSTPCVPDPTKQAEEILNAILPPREWVEDTQLWIQQVSSTPSTRMDVVHLQEQLDLKLQQRQARETGICPVRRELYSQCFDELIREVTINCAERGLLLLRVRDEIRMTIAAYQTLYESSVAFGMRKALQAEQGKSDMERKIAELETEKRDLERQVNEQKAKCEATEKRESERRQVEEKKHNEEIQFLKRTNQQLKAQLEGIIAPKK
B3: DNAAF2/KTU (protein, UniProt Q9NVR5 1-837)
chain: MAKAAASSSLEDLDLSGEEVQRLTSAFQDPEFRRMFSQYAEELTDPENRRRYEAEITALERERGVEVRFVHPEPGHVLRTSLDGARRCFVNVCSNALVGAPSSRPGSGGDRGAAPGSHWSLPYSLAPGREYAGRSSSRYMVYDVVFHPDALALARRHEGFRQMLDATALEAVEKQFGVKLDRRNAKTLKAKYKGTPEAAVLRTPLPGVIPARPDGEPKGPLPDFPYPYQYPAAPGPRAPSPPEAALQPAPTEPRYSVVQRHHVDLQDYRCSRDSAPSPVPHELVITIELPLLRSAEQAALEVTRKLLCLDSRKPDYRLRLSLPYPVDDGRGKAQFNKARRQLVVTLPVVLPAARREPAVAVAAAAPEESADRSGTDGQACASAREGEAGPARSRAEDGGHDTCVAGAAGSGVTTLGDPEVAPPPAAAGEERVPKPGEQDLSRHAGSPPGSVEEPSPGGENSPGGGGSPCLSSRSLAWGSSAGRESARGDSSVETREESEGTGGQRSACAMGGPGTKSGEPLCPPLLCNQDKETLTLLIQVPRIQPQSLQGDLNPLWYKLRFSAQDLVYSFFLQFAPENKLSTTEPVISISSNNAVIELAKSPESHGHWREWYYGVNNDSLEERLFVNEENVNEFLEEVLSSPFKQSMSLTPPLIEVLQVTDNKIQINAKLQECSNSDQLQGKEERVNEESHLTEKEYIEHCNTPTTDSDSSIAVKALQIDSFGLVTCFQQESLDVSQMILGKSQQPESKMQSEFIKEKSATCSNEEKDNLNESVITEEKETDGDHLSSLLNKTTVHNIPGFDSIKETNMQDGSVQVIKDHVTNCAFSFQNSLLYDLD
B4: DNAAF3 (protein, UniProt Q8N9W5 1-541)
chain: MTTPAGSGSGFGSVSWWGLSPALDLQAESPPVDPDSQADTVHSNPELDVLLLGSVDGRHLLRTLSRAKFWPRRRFNFFVLENNLEAVARHMLIFSLALEEPEKMGLQERSETFLEVWGNALLRPPVAAFVRAQADLLAHLVPEPDRLEEQLPWLSLRALKFRERDALEAVFRFWAGGEKGPQAFPMSRLWDSRLRHYLGSRYDARRGVSDWDLRMKLHDRGAQVIHPQEFRRWRDTGVAFELRDSSAYHVPNRTLASGRLLSYRGERVAARGYWGDIATGPFVAFGIEADDESLLRTSNGQPVKTAGEITQHNVTELLRDVAAWGRARATGGDLEEQQHAEGSPEPGTPAAPTPESFTVHFLPLNSAQTLHHKSCYNGRFQLLYVACGMVHLLIPELGACVAPGGNLIVELARYLVDVRQEQLQGFNTRVRELAQAAGFAPQTGARPSETFARFCKSQESALGNTVPAVEPGTPPLDILAQPLEASNPALEGLTQPLQGGTPHCEPCQLPSESPGSLSEVLAQPQGALAPPNCESDSKTGV

Molecular target: T1, HEATR2 (human (endogenous in normal human bronchial epithelial cells)) (UniProt Q86Y56)
T1 sequence: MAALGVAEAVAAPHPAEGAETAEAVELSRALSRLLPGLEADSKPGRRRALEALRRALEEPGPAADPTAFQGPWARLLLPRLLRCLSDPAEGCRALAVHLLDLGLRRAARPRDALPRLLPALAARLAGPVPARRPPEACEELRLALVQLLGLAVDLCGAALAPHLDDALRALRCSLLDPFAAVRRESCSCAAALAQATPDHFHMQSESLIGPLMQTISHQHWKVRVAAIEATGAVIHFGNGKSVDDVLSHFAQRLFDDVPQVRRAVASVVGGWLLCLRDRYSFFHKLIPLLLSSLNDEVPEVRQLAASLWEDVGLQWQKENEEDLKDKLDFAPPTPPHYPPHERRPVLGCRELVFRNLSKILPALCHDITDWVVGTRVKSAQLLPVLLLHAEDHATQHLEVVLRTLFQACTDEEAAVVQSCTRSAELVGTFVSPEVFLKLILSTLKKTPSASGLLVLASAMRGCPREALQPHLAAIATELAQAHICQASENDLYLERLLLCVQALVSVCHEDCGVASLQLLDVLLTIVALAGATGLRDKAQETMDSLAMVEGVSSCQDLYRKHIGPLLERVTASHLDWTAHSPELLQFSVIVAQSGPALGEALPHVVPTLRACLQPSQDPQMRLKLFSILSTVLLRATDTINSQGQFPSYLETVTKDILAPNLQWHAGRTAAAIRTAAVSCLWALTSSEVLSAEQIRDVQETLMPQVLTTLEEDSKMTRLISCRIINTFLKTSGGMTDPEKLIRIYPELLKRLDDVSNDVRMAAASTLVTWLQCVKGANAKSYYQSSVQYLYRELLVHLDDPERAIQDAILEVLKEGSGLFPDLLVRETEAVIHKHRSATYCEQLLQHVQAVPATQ
Assay: co-IP; endogenous HEATR2 precipitated with anti-HEATR2 (Proteintech) from whole cell lysates of terminally differentiated normal human bronchial epithelial cells (40 days post-ALI); control rabbit IgG (GFP); lysis buffer 50 mM Tris-HCl pH 7.5, 100 mM NaCl, 10% glycerol, 0.5 mM EDTA, 0.5% IGEPAL, 0.15% Triton-X 100; overnight at 4°C; Dynabeads G; immunoblot

Row | Molecule | binding
1 | DNAH5 (from UniProt Q8TE73 1-4624) | no binding
2 | ZMYND10 (from UniProt O75800 1-440) | no binding
3 | B1 | binds
4 | B2 | no binding
5 | B3 | no binding
6 | B4 | no binding
